The values that follow come from ChEMBL document CHEMBL4888484, “Replenishing the malaria drug discovery pipeline: Screening and hit evaluation of the MMV Hit Generation Library 1 (HGL1) against asexual blood stage Plasmodium falciparum ,using a nano luciferase reporter read-out” (2022).

Out of some 150,000 compounds screened, about 540 (0.36%) showed an effect of 50% or more. The list shows a part of the results.

This assay concerns Plasmodium falciparum. The assay is described as follows: Primary screen in NF54 nanoGlo assay, in single point, at 2uM, 72h; a lower Z score goes with more inhibition. The note with it: timepoint 72 hour. The assay is classed as functional, Erythrocyte.
For `CN(Cc1ccc2cc[nH]c2c1)C(=O)[C@H]1CCc2n[nH]c(=O)n2C1`, the “% Inhibition” value was -23% and the Z score amounted to 4.57.

Consider `CCc1ccc(CNC(=O)N(C)Cc2nnc[nH]2)s1`, for which the “% Inhibition” value was determined as 31% and the Z score was -3.47.

Turning to `COc1cc(Br)c(F)cc1S(=O)(=O)Nc1onc(C2CCCCC2)c1C`, the “% Inhibition” value is reported as -26% and the Z score is reported as 3.07.

`CCCCc1noc(Cn2cnc3c(cnn3C)c2=O)n1`: the “% Inhibition” value is given as -12% and the Z score came out at 1.12.

Consider `Cc1ccc([C@@H]2COCCN2Cc2cn3ccccc3c2C#N)o1`, for which the “% Inhibition” value is on record as -2% and the Z score is recorded as 0.22.

For the compound `COc1ccccc1Nc1c2c(nc3ccc(NC(=O)c4ccc5c(c4)OCO5)cc13)CCCC2`, the “% Inhibition” value is recorded as 2% and the Z score is listed as -0.26.

`COc1ccc(NC(=O)c2ccc3nn(CC(=O)NC4CCCC4)c(=O)n3c2)cc1`: the “% Inhibition” value is listed as -18% and the Z score came out at 1.63.

For `COC[C@@H](c1ccnn1C)n1cnc2c(F)cccc2c1=O`, the “% Inhibition” value is recorded as 3% and the Z score was -0.54.

`O=C(O)[C@@H]1C[C@@H](O)CN1c1nc2ccc(Cl)cc2s1`: the “% Inhibition” value is given as -9% and the Z score amounted to 1.35.

`Cc1cccc(NC(c2ccc(F)cc2)C2CCCC2=O)c1` (stereo not drawn): the “% Inhibition” value was 1% and the Z score is listed as -0.26.

`COc1cccc(C(=O)N2CCOC[C@H](OC)C2)c1`: the “% Inhibition” value is listed as 6% and the Z score is recorded as -0.74.

Regarding `CC(=O)c1sc(NC(=O)[C@H](C)n2nc(C3CC3)ccc2=O)nc1C`, the “% Inhibition” value was found to be 8% and the Z score is reported as -1.03.

With `CCN(Cc1ccnc(OC)c1)[C@H]1CCS(=O)(=O)C1`, the “% Inhibition” value is -11% and the Z score was 2.11.

As to `Nc1c(C(=O)Nc2cccc(F)c2)sc(=S)n1C[C@H]1CCCO1`, the “% Inhibition” value is -4% and the Z score came out at 0.56.

For the compound `O=C(O)c1ccc(CNC(=O)C2(c3c(F)cccc3F)CCC2)o1`, the “% Inhibition” value was -12% and the Z score came to 1.48.

In the case of `COc1ccc(CN2CCN(c3nn4cc(C)nc4s3)CC2)cc1`, the “% Inhibition” value is on record as -10% and the Z score is reported as 0.87.

As for `COc1cccc(CNC(=O)Cn2c(C)c(Cc3ccccc3)c(=O)n3nc(-c4ccccc4)nc23)c1`, the “% Inhibition” value is on record as 2% and the Z score is -0.22.

With `C[C@H]1CNC(=O)CCN1C(=O)Cc1cccnc1`, the “% Inhibition” value is -5% and the Z score is recorded as 0.71.

Regarding `CCN1CCn2cc(CNC(=O)c3noc(C)c3COc3ccccc3)nc2C1=O`, the “% Inhibition” value was -1% and the Z score is listed as 0.18.

Regarding `COc1ccc(NC(=O)[C@@H](C)C2CCOCC2)cc1`, the “% Inhibition” value is on record as 37% and the Z score is -5.31.

With `CCc1ncc(S(=O)(=O)N2CCCc3ccc(C)c(F)c32)s1`, the “% Inhibition” value is -19% and the Z score was found to be 3.66.

As for `O=C1C[C@H](Nc2ccc3c(c2)OCO3)C(=O)N1CCc1ccccc1F`, the “% Inhibition” value was -4% and the Z score was determined as 0.63.

`CC(C)Cn1nccc1C(=O)Nc1cc(Cl)ccc1-c1nnn[nH]1`: the “% Inhibition” value was -6% and the Z score amounted to 0.74.

With `CCc1ncnc(N2CCC(CCCn3ccnc3)CC2)c1F`, the “% Inhibition” value is reported as 4% and the Z score is -0.47.
